# PubChem BioAssay AID1458 (National Center for Advancing Translational Sciences (NCATS), 2008)
# About 5,900 (2.8%) of roughly 210,000 compounds were called active. The inconclusive results got no clear call from the source; some entries with a clear call stand among them for comparison. Calls come from the whole dose curve; as a rule, active = well fitted activation curve with a large enough effect; inconclusive = small, poorly fitted or top-dose-only effect; inactive = no such curve, though single readings can be large or run the other way. Potencies beside an inconclusive call are fits to weak or partial responses and may not hold up.
# Assay: qHTS Assay for Enhancers of SMN2 Splice Variant Expression; note: nearly all actives have a fitted effect of over 55% in size; for activity change, positive = activation: % of control where 0% means no effect
# Settings: HEK293 SMN2-luciferase splicing reporter, luminescence, 30-36 h; activity change, positive = activation: at 46.1 µM (top of the series)
# Outline: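 HEK293 cells carry an SMN2 minigene-luciferase reporter in which exon 7 inclusion puts luciferase in frame. Cells were seeded at 2000 cells/well, attached for 10-12 hours, then exposed to compounds for 30-36 hours at 37C before ONE-Glo luminescence.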
# Potency is the fitted concentration of half-maximal effect; tags give direction and shape of the fitted curve.
SMILES,Potency,"activity change, positive = activation"
CC1CCCN(C(=O)Nc2ccc(Br)cc2Cl)C1 (stereo not drawn),"inconclusive: 25.1 µM [activator, single point]",–
CC(C)Oc1ccc(CNC2CCOC(C)(C)C2)cc1 (stereo not drawn),"inconclusive: 0.0447 µM [activator, full curve, poor fit]",–
CC(C)(C)c1csc(N/N=C/c2cccnc2)n1,"inconclusive: 8.91 µM [activator, partial curve]",–
CCOc1ccc(-c2cn(-c3ccc(OC)cc3)c(SC)n2)cc1,active: 11.2 µM,–
CN(C)c1ccc(/C=N/NC(=O)CNC(=O)c2ccc3c(c2)OCCO3)cc1,inactive,–
Cc1onc(-c2ccccc2Cl)c1C(=O)Oc1ccc(Br)cc1,"inconclusive: 25.1 µM [activator, single point]",–
CC(C)(C)c1ccc(C(=O)NC(=S)Nc2sc3c(c2C#N)CCC3)cc1,"inconclusive: 3.16 µM [activator, single point]",–
COc1cc(C(=O)NCCN2CCCC2)cc(OC)c1OC,"inconclusive: 5.62 µM [activator, single point]",–
Clc1cccc(N2CCN(c3ncnc4c3nc3n4CCCC3)CC2)c1,"inconclusive: 15.8 µM [activator, partial curve]",–
CCN(CC)CCCNC(=O)CCCn1c(=O)[nH]c2ccc(Br)cc2c1=O,inactive,–
CC(=O)Nc1ccc(NC(=O)CSc2ccc(C)cc2)cc1,inactive,–
Cc1ccccc1CS(=O)(=O)Cc1ccc(C(=O)NCCCN2CCCC2=O)o1,"inconclusive: 0.1 µM [activator, full curve, poor fit]",–
C#CCn1c(/C=C/c2ccc(Cl)cc2)nc2ccccc21,active: 2.51 µM,–
O=C(CSc1nnc(Cn2nnc(-c3ccccc3)n2)n1-c1ccccc1)Nc1ccc(F)cc1,"inconclusive: 4.47 µM [activator, single point]",–
CCn1c(=O)c2c(n3c(=S)[nH]nc13)-c1ccccc1CC21CCCCC1,inactive,–
Cc1ccc(-n2cc(C(=O)O)c(=O)cc2C)c(C)c1,inactive,–
Cc1ccc(/C=C/C(=O)N2CCCN(C(=O)/C=C/c3ccc(C)cc3)CC2)cc1,–,inconclusive: 43.2% [activator]
CCNC(=O)CC1C(=O)N(c2ccccc2)C(=O)N1CCC(C)C (stereo not drawn),"inconclusive: 7.08 µM [activator, full curve, poor fit]",–
Cc1ccc(/C(N)=N/OC(=O)c2cccs2)cc1,–,inactive: 26.3% [at 1.84 µM]
N#C/C(=C\c1ccc(O)c(O)c1)C(=O)c1ccc(O)c(O)c1,"inconclusive: 12.6 µM [activator, single point]",–
CNC(=O)c1ccc(-c2nc(-c3ccccc3)cs2)cc1,active: 15.8 µM,–
Cn1c(C(=O)NCc2ccccn2)cc2c(=O)n3ccccc3nc21,active: 14.1 µM,–
CC(=O)c1cccc(N(C(=O)Cn2nnc3ccccc32)C(C(=O)NCc2ccccc2)c2ccc(F)cc2)c1 (stereo not drawn),inactive,–
COc1ccc(S(=O)(=O)N(c2onc(C)c2Cl)S(=O)(=O)c2ccc(OC)cc2)cc1,–,inconclusive: 36.5% [activator]
Clc1ccc2nc(N3CCCCC3)[nH]c2c1,active: 14.1 µM,–
COc1cccc(NC(=S)NCc2ccccn2)c1,"inconclusive: 5.62 µM [activator, partial curve]",–

SMILES,Potency,"activity change, positive = activation"
COc1ccccc1CNC(=O)C[n+]1ccccc1,"inconclusive: 5.62 µM [activator, single point]",–
O=c1c2ccccc2oc2ccccc12,"inconclusive: 12.6 µM [activator, partial curve]",–
CCC(=O)Oc1ccc(-c2cnc3ccccc3n2)cc1,"inconclusive: 35.5 µM [activator, single point]",–
CN(CC(=O)Nc1ccc(N2CCOCC2)cc1)Cc1cc(=O)n2ccsc2n1,inactive,–
CC(Oc1ccc(F)cc1)C(=O)Nc1ccc2ccccc2c1 (stereo not drawn),"inconclusive: 31.6 µM [activator, single point]",–
COc1cc(OC)cc(C(=O)Nc2ccccc2NC(C)=O)c1,"inconclusive: 15.8 µM [activator, partial curve]",–
COc1ccc(-c2nnc(SCC(=O)Nc3nc4ccccc4s3)n2C)cc1,"inconclusive: 6.31 µM [activator, partial curve, poor fit]",–
N/C(=N\OC(=O)Cc1cccs1)c1ccc(Br)cc1,inactive,–
COc1ccccc1Nc1cc(C(=O)NC2CCC(C)CC2)c2ccccc2n1 (stereo not drawn),"inconclusive: 31.6 µM [activator, single point]",–
Cc1nn(CC(=O)c2ccccc2)c(=O)c2nn(-c3ccccc3F)c(C)c12,inactive,–
COc1cccc(C(=O)NC2=NCCS2)c1,active: 2 µM,–
Cc1cc(C)nc(NC2=NCC(=O)N2c2cc(Cl)cc(Cl)c2)n1,"inconclusive: 2.82 µM [activator, partial curve]",–
Cc1ccc(-c2nc(C#N)c(NCc3ccco3)o2)cc1,"inconclusive: 12.6 µM [activator, partial curve, poor fit]",–
O=Cc1ccc(OCc2ccccn2)cc1,active: 15.8 µM,–
COc1ccc(CCNC(=O)CCC(=O)N2CCN(S(=O)(=O)c3ccccc3)CC2)cc1OC,"inconclusive: 35.5 µM [activator, partial curve, poor fit]",–
O=C(NCCc1ccccc1)c1ccc(Cl)nc1,active: 11.2 µM,–
CS(=O)(=O)N(CC(N)=O)Cc1ccc(Cl)cc1,"inconclusive: 0.0045 µM [activator, full curve, poor fit]",–
Cc1ccc(N)cc1[N+](=O)[O-],inactive,–
COc1cc(S(=O)(=O)n2nnc3ccccc32)c(OC)cc1Cl,"inconclusive: 12.6 µM [activator, partial curve]",–
Cc1cc(Nc2ccccc2C(=O)O)nc2nc3ccccc3c(=O)n12,"inconclusive: 0.158 µM [activator, full curve, poor fit]",–
Cc1cccc(OCC(=O)Nc2ccc(-c3nc4ccccc4o3)cc2)c1C,"inconclusive: 3.55 µM [activator, full curve, poor fit]",–
Nc1c(Cl)cc(Cl)cc1C(=O)OCC(=O)N1CCOCC1,"inconclusive: 3.55 µM [activator, partial curve]",–
CC(C)Nc1nc(NC(C)C)nc(C(N)=O)n1,–,inconclusive: 31% [activator]
Nc1ccc(-c2nc3ccc(N)cc3[nH]2)cc1,"inconclusive: 12.6 µM [activator, single point]",–
CN(CCCNC(=O)CCCOc1cc(=O)n(C)c2ccccc12)Cc1ccccc1,"inconclusive: 15.8 µM [activator, single point]",–
Cc1ccc2nc(Nc3ccc(C)c(F)c3)c3nncn3c2c1,inactive,–

SMILES,Potency,"activity change, positive = activation"
COC(=O)c1ccc(NC(=O)CNC(=O)C2CCCCC2)c(C)c1,"inconclusive: 3.55 µM [activator, partial curve, poor fit]",–
O=C(Nc1ccccc1F)c1ccc(CSc2ncccn2)cc1,"inconclusive: 31.6 µM [activator, single point]",–
c1ccc(OCc2nc3ccccc3s2)cc1,active: 12.6 µM,–
COc1ccc(C2=C(N3CCN(c4cccc(C)c4)C(C)C3)c3ccccc3C2=O)cc1 (stereo not drawn),inactive,–
COc1cccc(CNC(=O)Cc2c(C)c3ccc(OC)c(C)c3oc2=O)c1,inactive,–
Cc1ccccc1NC(=S)NNC(=O)c1ccoc1C,inactive,–
O=C1C2C3C=CC(C3)C2C(=O)N1c1nc2ccccc2s1 (stereo not drawn),inactive,–
COCc1nn2c(N)c(C#N)cnc2c1-c1ccccc1,inactive,–
CCC1(C)Cc2c(sc3nn[nH]c(=O)c23)CO1 (stereo not drawn),"inconclusive: 5.62 µM [activator, single point]",–
CC(=O)N1CCn2c3ccc(C)cc3c3cccc1c32,"inconclusive: 35.5 µM [activator, single point]",–
Cc1coc2cc3oc(=O)c(CC(=O)NCc4cccc(Cl)c4)c(C)c3cc12,inactive,–
O=C(CC1SCCNC1=O)Nc1cc(Cl)cc(Cl)c1 (stereo not drawn),"inconclusive: 0.0794 µM [activator, full curve]",–
COCCCn1c(SCC(=O)N2CC(=O)Nc3ccccc32)nnc1-c1ccoc1C,inactive,–
CCC1CCCCN1C(=O)CSc1nnc(-c2ccco2)o1 (stereo not drawn),"inconclusive: 14.1 µM [activator, single point]",–
CCC1SC(=NC(=O)c2ccc(Cl)c(Cl)c2)NC1=O (stereo not drawn),"inconclusive: 10 µM [activator, single point]",–
O=c1c2[nH]c3ccc(F)cc3c2ncn1CCCn1ccnc1,inactive,–
CCc1ccc(S(=O)(=O)c2cn(Cc3ccccc3F)c3cc(OC)c(OC)cc3c2=O)cc1,inactive,–
COc1ccc(OC)c(C2=C[N+](=O)C(C)(C)C(C)(C)N2[O-])c1,"inconclusive: 2.51 µM [activator, full curve]",–
Cn1c(-c2cccs2)nc2ccccc21,active: 12.6 µM,–
COc1ccc(CCNC(=O)C(=O)N2CCCCC2)cc1OC,inactive,–
Oc1ccc(-c2csc(Nc3ncccn3)n2)c(O)c1,active: 11.2 µM,–
C/C(=N/NC(=O)c1ccc(C)s1)c1cccc(NC(=O)COc2ccc(Cl)cc2C)c1,inactive,–
O=C(NCCCN1CCOCC1)C1CC(=O)N(C2CCCCC2)C1 (stereo not drawn),"inconclusive: 0.0032 µM [activator, full curve, poor fit]",–
CCCCNc1nc(Oc2ccc(=O)n(C)n2)nc(N2CCOCC2)n1,"inconclusive: 14.1 µM [activator, single point]",–
CC(=O)c1cccc(NC(=O)CCc2c(C)nc3c(c(C)nn3-c3ccccc3)c2C)c1,inactive,–
COc1cc(NC(=O)C(Cc2ccccc2)NS(=O)(=O)c2cccc3nsnc23)cc(OC)c1 (stereo not drawn),inactive,–
